# Laboratory results taken from the supplement of paper PMC8728848.
# The other results are listed elsewhere or left out.
# Tests used:
# Assay in all cases: glycan array binding signal (z-score within array); higher = stronger binding
# Conditions in all cases: glycan notation: IUPAC condensed, linker removed
# [1] = molecular target: Man(a1-3)[Man(a1-6)]Man(a1-6)[Man(a1-3)]Man
# Method in brief: (§1)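 The Consortium for Functional Glycomics database supplied 3228 glycan arrays, of which those lacking an available protein sequence were dropped. The binding signal, a within-array Z-score, was averaged across arrays of the same protein sequence and across linkers. Negative scores can be read as non-binding.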
# [2] = molecular target: Man(a1-3)[Man(a1-6)]Man(a1-6)[Man(a1-3)]Man(b1-4)GlcNAc(b1-4)GlcNAc
# Method in brief: as §1
# [3] = molecular target: Man(a1-3)[Man(a1-6)]Man(b1-4)GlcNAc(b1-4)GlcNAc
# Method in brief: as §1
# Man(a1-6)Man = molecular target: Man(a1-6)Man
# Method in brief: as §1
# Man(b1-4)GlcNAc = molecular target: Man(b1-4)GlcNAc
# Method in brief: as §1
# Neu5Ac(a2-3)Gal = molecular target: Neu5Ac(a2-3)Gal
# Method in brief: as §1
# [4] = molecular target: Neu5Ac(a2-3)Gal(b1-3)GalNAc
# Method in brief: as §1
# [5] = molecular target: Neu5Ac(a2-3)Gal(b1-3)GalNAc(b1-3)Gal(a1-4)Gal(b1-4)Glc
# Method in brief: as §1
# [6] = molecular target: Neu5Ac(a2-3)Gal(b1-3)GalNAc(b1-3)Gal(b1-4)GlcNAc
# Method in brief: as §1
# [7] = molecular target: Neu5Ac(a2-3)Gal(b1-3)GalNAc(b1-4)[Neu5Ac(a2-3)]Gal(b1-4)Glc
# Method in brief: as §1
# [8] = molecular target: Neu5Ac(a2-3)Gal(b1-3)GalNAc6S
# Method in brief: as §1
# [9] = molecular target: Neu5Ac(a2-3)Gal(b1-3)GlcNAc
# Method in brief: as §1
# [10] = molecular target: Neu5Ac(a2-3)Gal(b1-3)GlcNAc(b1-3)Gal(b1-3)GlcNAc
# Method in brief: as §1
# [11] = molecular target: Neu5Ac(a2-3)Gal(b1-3)GlcNAc6S
# Method in brief: as §1
# [12] = molecular target: Neu5Ac(a2-3)Gal(b1-3)[Fuc(a1-4)]GlcNAc
# Method in brief: as §1
# [13] = molecular target: Neu5Ac(a2-3)Gal(b1-3)[Fuc(a1-4)]GlcNAc(b1-3)Gal(b1-4)[Fuc(a1-3)]GlcNAc
# Method in brief: as §1
# [14] = molecular target: Neu5Ac(a2-3)Gal(b1-3)[Neu5Ac(a2-3)Gal(b1-4)]GlcNAc
# Method in brief: as §1
# [15] = molecular target: Neu5Ac(a2-3)Gal(b1-3)[Neu5Ac(a2-6)]GalNAc
# Method in brief: as §1
# Neu5Ac(a2-3)Gal(b1-4)Glc = molecular target: Neu5Ac(a2-3)Gal(b1-4)Glc
# Method in brief: as §1
# [16] = molecular target: Neu5Ac(a2-3)Gal(b1-4)GlcNAc
# Method in brief: as §1
# [17] = molecular target: Neu5Ac(a2-3)Gal(b1-4)GlcNAc(b1-2)Man(a1-3)[GlcNAc(b1-2)Man(b1-4)GlcNAc(b1-2)Man(a1-6)]Man(b1-4)GlcNAc(b1-4)GlcNAc
# Method in brief: as §1
# [18] = molecular target: Neu5Ac(a2-3)Gal(b1-4)GlcNAc(b1-2)Man(a1-3)[Neu5Ac(a2-6)Gal(b1-4)GlcNAc(b1-2)Man(a1-6)]Man(b1-4)GlcNAc(b1-4)GlcNAc
# Method in brief: as §1
# [19] = molecular target: Neu5Ac(a2-3)Gal(b1-4)GlcNAc(b1-3)Gal(b1-3)GlcNAc
# Method in brief: as §1
# [20] = molecular target: Neu5Ac(a2-3)Gal(b1-4)GlcNAc(b1-3)Gal(b1-4)GlcNAc
# Method in brief: as §1
# [21] = molecular target: Neu5Ac(a2-3)Gal(b1-4)GlcNAc(b1-3)Gal(b1-4)GlcNAc(b1-3)Gal(b1-4)GlcNAc
# Method in brief: as §1
# [22] = molecular target: Neu5Ac(a2-3)Gal(b1-4)GlcNAc(b1-3)Gal(b1-4)[Fuc(a1-3)]GlcNAc
# Method in brief: as §1
# [23] = molecular target: Neu5Ac(a2-3)Gal(b1-4)GlcNAc(b1-6)[Gal(b1-3)]GalNAc
# Method in brief: as §1
# [24] = molecular target: Neu5Ac(a2-3)Gal(b1-4)GlcNAc(b1-6)[Neu5Ac(a2-3)Gal(b1-3)]GalNAc
# Method in brief: as §1
# [25] = molecular target: Neu5Ac(a2-3)Gal(b1-4)GlcNAc6S
# Method in brief: as §1
# [26] = molecular target: Neu5Ac(a2-3)Gal(b1-4)[Fuc(a1-3)]GlcNAc
# Method in brief: as §1
# [27] = molecular target: Neu5Ac(a2-3)Gal(b1-4)[Fuc(a1-3)]GlcNAc(b1-3)Gal
# Method in brief: as §1
# [28] = molecular target: Neu5Ac(a2-3)Gal(b1-4)[Fuc(a1-3)]GlcNAc(b1-3)Gal(b1-4)GlcNAc
# Method in brief: as §1
# [29] = molecular target: Neu5Ac(a2-3)Gal(b1-4)[Fuc(a1-3)]GlcNAc(b1-3)Gal(b1-4)[Fuc(a1-3)]GlcNAc(b1-3)Gal(b1-4)[Fuc(a1-3)]GlcNAc
# Method in brief: as §1
# [30] = molecular target: Neu5Ac(a2-3)Gal(b1-4)[Fuc(a1-3)]GlcNAc(b1-6)[Gal(b1-3)]GalNAc
# Method in brief: as §1
# [31] = molecular target: Neu5Ac(a2-3)Gal(b1-4)[Fuc(a1-3)]GlcNAc6S
# Method in brief: as §1
# [32] = molecular target: Neu5Ac(a2-3)Gal6S(b1-4)GlcNAc
# Method in brief: as §1
# [33] = molecular target: Neu5Ac(a2-3)Gal6S(b1-4)[Fuc(a1-3)]GlcNAc
# Method in brief: as §1
# Neu5Ac(a2-3)GalNAc = molecular target: Neu5Ac(a2-3)GalNAc
# Method in brief: as §1
# [34] = molecular target: Neu5Ac(a2-3)GalNAc(b1-4)GlcNAc
# Method in brief: as §1
# [35] = molecular target: Neu5Ac(a2-3)[GalNAc(b1-4)]Gal(b1-4)Glc
# Method in brief: as §1
# [36] = molecular target: Neu5Ac(a2-3)[GalNAc(b1-4)]Gal(b1-4)GlcNAc
# Method in brief: as §1
# [37] = molecular target: Neu5Ac(a2-3)[Neu5Ac(a2-6)]GalNAc
# Method in brief: as §1
# Neu5Ac(a2-6)Gal = molecular target: Neu5Ac(a2-6)Gal
# Method in brief: as §1
# Neu5Ac(a2-6)Gal(b1-4)Glc = molecular target: Neu5Ac(a2-6)Gal(b1-4)Glc
# Method in brief: as §1
# [38] = molecular target: Neu5Ac(a2-6)Gal(b1-4)GlcNAc
# Method in brief: as §1
binder,measurement,setting,value
"Glycodelin A (Homo sapiens), P09466 (protein) MLCLLLTLGVALVCGVPAMDIPQTKQDLELPKLAGTWHSMAMATNNISLMATLKAPLRVHITSLLPTPEDNLEIVLHRWENNSCVEKKVLGEKTENPKKFKINYTVANEATLLDTDYDNFLFLCLQDTTTPIQSMMCQYLARVLVEDDEIMQGFIRAFRPLPRHLWYLLDLKQMEEPCRF",glycan array binding signal (z-score),[1],-0.048
same,glycan array binding signal (z-score),[2],-0.154
same,glycan array binding signal (z-score),[3],-0.406
same,glycan array binding signal (z-score),Man(a1-6)Man,-0.343
same,glycan array binding signal (z-score),Man(b1-4)GlcNAc,-0.404
same,glycan array binding signal (z-score),Neu5Ac(a2-3)Gal,-0.131
same,glycan array binding signal (z-score),[4],0.641
same,glycan array binding signal (z-score),[5],-0.441
same,glycan array binding signal (z-score),[6],-0.477
same,glycan array binding signal (z-score),[7],-0.406
same,glycan array binding signal (z-score),[8],-0.419
same,glycan array binding signal (z-score),[9],-0.399
same,glycan array binding signal (z-score),[10],-0.434
same,glycan array binding signal (z-score),[11],1.21
same,glycan array binding signal (z-score),[12],-0.43
same,glycan array binding signal (z-score),[13],-0.46
same,glycan array binding signal (z-score),[14],-0.439
same,glycan array binding signal (z-score),[15],1.76
same,glycan array binding signal (z-score),Neu5Ac(a2-3)Gal(b1-4)Glc,-0.347
same,glycan array binding signal (z-score),[16],-0.372
same,glycan array binding signal (z-score),[17],-0.448
same,glycan array binding signal (z-score),[18],-0.381
same,glycan array binding signal (z-score),[19],-0.449
same,glycan array binding signal (z-score),[20],-0.355
same,glycan array binding signal (z-score),[21],-0.385
same,glycan array binding signal (z-score),[22],-0.491
same,glycan array binding signal (z-score),[23],0.897
same,glycan array binding signal (z-score),[24],-0.47
same,glycan array binding signal (z-score),[25],-0.489
same,glycan array binding signal (z-score),[26],1.59
same,glycan array binding signal (z-score),[27],-0.441
same,glycan array binding signal (z-score),[28],-0.47
same,glycan array binding signal (z-score),[29],-0.374
same,glycan array binding signal (z-score),[30],2.67
same,glycan array binding signal (z-score),[31],-0.384
same,glycan array binding signal (z-score),[32],-0.381
same,glycan array binding signal (z-score),[33],-0.448
same,glycan array binding signal (z-score),Neu5Ac(a2-3)GalNAc,-0.477
same,glycan array binding signal (z-score),[34],1.8
same,glycan array binding signal (z-score),[35],-0.29
same,glycan array binding signal (z-score),[36],-0.435
same,glycan array binding signal (z-score),[37],-0.3
same,glycan array binding signal (z-score),Neu5Ac(a2-6)Gal,-0.479
same,glycan array binding signal (z-score),Neu5Ac(a2-6)Gal(b1-4)Glc,-0.437
same,glycan array binding signal (z-score),[38],0.199
